Data published in PubChem BioAssay AID1345083 (National Center for Advancing Translational Sciences (NCATS), 2018).
Among all 94,000 compounds or so, about 6,200 (6.6%) were called active. Inconclusive means that the source gave no clear call. Such entries were picked first, then a sample of the others. The call rests on the fitted dose curve; in most records, active means well fitted inhibition curve with a large enough effect; inconclusive means small, poorly fitted or top-dose-only effect; inactive means flat fitted curve, though single readings scatter. Potencies beside an inconclusive call are fits to weak or partial responses and may not hold up.

Assay: Cytotoxic Profiling in HEK 293 Cell Line of Diverse Libraries Using Quantitative High-Throughput Screening; further: nearly all actives have a fitted effect of over 60% in size
Conditions: HEK 293 viability, ATP luminescence (CellTiter-Glo), 48-72 h; activity change, negative = cytotoxicity: at 115 µM (top of the series) unless noted; series mostly up to 115 µM
Outline: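 CellTiter-Glo luminescence (cellular ATP) was read after 48 or 72 hr of compound exposure at 37 degree Celsius. Cells were HEK 293 plated at 250 cells/well.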
On the % scale 0 is the no-effect control and ±100 the full control effect; potency means the concentration at half of the fitted maximal effect; tags describe the fitted curve by direction and shape.

Structure (SMILES)	Potency	activity change, negative = cytotoxicity	outcome
O=C(Cc1ccccn1)N1CCC2(CC1)CCN(Cc1cccs1)c1ccccc1O2	inconclusive: 50.1 µM [inhibitor, partial curve, poor fit]		
COC(=O)[C@H](Cc1ccc(OC)cc1)NC(=O)[C@H]1CN(C(=O)c2cccnc2)CCN1C(=O)NC1CCCCC1		inactive: -0.0528%	
O[C@H]1[C@H](NCc2ccncc2)[C@H]2CO[C@H](O2)[C@@H]1N1CCC(Cc2ccccc2)CC1	inconclusive: 100 µM [inhibitor, partial curve, poor fit]		
CCC1Oc2ccc(NC(=O)Cc3ccc(F)cc3)cc2CN(Cc2cccc(OC)c2)C1=O (stereo not drawn)	inconclusive: 35.5 µM [inhibitor, partial curve, poor fit]		
CN(C)c1cccc(-c2cnc(Nc3cccc(N[S+](C)(=O)[O-])c3)c3c2CCO3)c1	active: 20 µM		
CCOc1ccccc1NC(=O)CN1C(=O)C(c2ccccc2)=NC12CCCC2	active: 79.4 µM		
Cc1nn(-c2ccc(C(C)C)cc2)c(C)c1[C@@H]1C=C[C@@H](NC(=O)NCc2ccccc2)C1	active: 25.1 µM		
Cn1nc(C2CC2)n(C2CCN(C(=O)CCCc3ccccc3)CC2)c1=O		inactive: -14.3%	
CCCCN(C)C(=O)CN1C(=O)NC2(CCC(C)CC2)C1=O (stereo not drawn)		inactive: -6.34%	
COC(=O)N1CCCN(c2nc3ncccc3o2)CC1		inactive: 0.893% [at 172 µM]	
COc1cccc(CCC(=O)N2CCC(Oc3ncccc3C(=O)N3CCCCC3)C2)c1 (stereo not drawn)		inactive: 1.23%	
O=C1CC2(CCN(C(=O)C3CCCN([S+](=O)([O-])c4cccs4)C3)CC2)Oc2ccccc2N1 (stereo not drawn)	inconclusive: 56.2 µM [inhibitor, partial curve, poor fit]		
COCCCNC(=O)N1CCCCCCNC(=O)[C@@H]2CCCC[C@@H]21			inactive
COc1ccc(Nc2ccnc(N3CCCC(C(=O)N4CCC(c5ccccc5)CC4)C3)n2)cc1 (stereo not drawn)	inconclusive: 12.6 µM [inhibitor, full curve, poor fit]		
Cc1cc2ncc(C(=O)NCc3cccc(Cl)c3)cn2n1	inconclusive: 10 µM [inhibitor, full curve]		
Cc1ccc([S+](=O)([O-])N2CCC(c3nn(Cc4ccccc4)c(=O)[nH]3)CC2)cc1		inactive: 0.4%	
O=C1c2c(nc(CNCc3cccnc3)n2Cc2ccccc2)NCCN1Cc1cccc(Cl)c1	inconclusive: 79.4 µM [inhibitor, single point]		
COc1cccc(C(=O)Nc2ccc3c(c2)CN(Cc2cccc(OC)c2OC)C(=O)CO3)c1	active: 44.7 µM		
O=C(c1[nH]nc2c1CCc1ccccc1-2)N1CCC(c2noc(-c3cccnc3)n2)C1 (stereo not drawn)	active: 35.5 µM		
O=C(COc1ccccc1)Nc1ccc2c(c1)CN(Cc1ccccc1F)C(=O)CO2	inconclusive: 50.1 µM [inhibitor, partial curve, poor fit]		
COCCNC(=O)C1COC2(CCN(C(=O)c3cccs3)CC2)N1C(=O)c1ccccc1 (stereo not drawn)	inconclusive: 100 µM [inhibitor, single point]		
COc1cccc(CC(=O)N2CC(COc3ccccc3)C3(C2)CN(c2ccccc2)C3)c1 (stereo not drawn)	inconclusive: 28.2 µM [inhibitor, full curve]		

Structure (SMILES)	Potency	activity change, negative = cytotoxicity	outcome
CN1c2cc(C(=O)Nc3ccc4c(c3)CCC4)ccc2C(=O)N2CCCCCC21 (stereo not drawn)	inconclusive: 35.5 µM [inhibitor, full curve, poor fit]		
COc1ccc(-c2noc(-c3cccn3CC(=O)Nc3ccc(F)c(F)c3)n2)cc1F		inactive: -17.2%	
CN(C)C(=O)C1CCCN(c2nccc(Nc3ccccc3F)n2)C1 (stereo not drawn)	inconclusive: 89.1 µM [inhibitor, partial curve]		
COc1cccc(CN2Cc3cc(NC(=O)c4ccc(F)cc4F)ccc3OC(C)C2=O)c1 (stereo not drawn)	inconclusive: 56.2 µM [inhibitor, partial curve, poor fit]		
CCC(C)(C)C(=O)N1CCC2(CC1)CC(N(Cc1ccc(F)cc1)C1CC1)CCO2 (stereo not drawn)	active: 44.7 µM		
Cc1nn2c(c1-c1ccccc1Oc1ccccc1)N(C(=O)C(C)C)CCC2	inconclusive: 63.1 µM [inhibitor, partial curve, poor fit]		
COc1ccc(Cn2c(C3CCN(C(=O)c4cccc(Cl)c4)CC3)n[nH]c2=O)cc1		inactive: -16%	
COc1ccc(CCc2nc3nccc(-c4ccsc4)n3n2)cc1OC	inconclusive: 35.5 µM [inhibitor, partial curve, poor fit]		
Cc1nc(-c2ccc(Cl)cc2)n(Cc2cccc(C(F)(F)F)c2)c(=O)c1CCO	inconclusive: 39.8 µM [inhibitor, full curve, poor fit]		
COc1ccc(-n2nc(C3CCN(Cc4ccc(OC(F)(F)F)cc4)CC3)[nH]c2=O)cc1	inconclusive: 6.31 µM [inhibitor, full curve, poor fit]		
COCCOC1CN(C2CCN(C(=O)c3ccc4cc[nH]c4c3)CC2)C12CCCCC2 (stereo not drawn)		inactive: -11.4%	
Cc1nccn1CC(=O)NCC1CCN(c2cc(-c3ccc(Cl)cc3)[nH]n2)CC1	inconclusive: 50.1 µM [inhibitor, partial curve, poor fit]		
CCN1CCC(N2CCC(Oc3ccccc3-c3nc(-c4ccncc4)no3)C2)CC1 (stereo not drawn)	active: 12.6 µM		
CC(C)c1noc(-c2cn(C3CCN(C(=O)c4cccc(C(F)(F)F)c4)C3)nn2)n1 (stereo not drawn)	inconclusive: 50.1 µM [inhibitor, partial curve, poor fit]		
Cc1cc(C)cc(Nc2nc(C)cc(=O)n2CC(=O)NC(C)CCc2ccccc2)c1 (stereo not drawn)	inconclusive: 89.1 µM [inhibitor, single point]		
O=C(NC[C@H]1O[C@@H](CO)[C@@H](O)[C@H]1N1CCOCC1)c1ccc(F)c(Cl)c1			inactive [at 172 µM]
COCCNC(=O)c1ccc2c(c1)N(C)C(CC(=O)Nc1cccnc1)CO2 (stereo not drawn)		inactive: -14.4%	
CCOC(=O)C1CCN(C(=O)c2ccc3nnc(-c4ccccc4OC)n3c2)CC1		inactive: 4.5%	
O[C@@H]1CC(CNCc2ccc(Cl)cc2)(COc2cccnc2)C[C@@H]1O (stereo partly drawn)		inactive: 3.05%	
COc1ccc(CN2CCC(CO)(CN3CCCC3)CC2)cc1C	active: 89.1 µM		
CC1CCN(c2ccc(CNC(=O)CC3CCOCC3)cc2)CC1	inconclusive: 28.2 µM [inhibitor, partial curve]		
